Assay results from paper PMC7556861.
Results are given in words; binding and its absence hold for the method and conditions named. In cells and extracts the contact can be indirect. Some binding calls cover weakened binding; strength is not graded here. Where a sequence is shown, tags or fusion partners need not be part of it.

By UniProt entry, the sequences of proteins in these tests, tags left out.
UniProt O95292: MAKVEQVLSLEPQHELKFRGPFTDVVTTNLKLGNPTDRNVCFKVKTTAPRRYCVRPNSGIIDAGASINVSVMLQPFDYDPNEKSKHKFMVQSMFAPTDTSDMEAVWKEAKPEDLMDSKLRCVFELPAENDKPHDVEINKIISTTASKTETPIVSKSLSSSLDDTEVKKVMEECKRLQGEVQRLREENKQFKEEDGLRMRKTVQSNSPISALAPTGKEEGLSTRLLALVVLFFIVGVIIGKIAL

Tests used:
[1] = molecular target: T1, MIGA2-HA (human MIGA2, from pcDNA3.1-MIGA2-HA) (human) (UniProt Q7L4E1); assay: co-IP; tagged proteins co-expressed in HeLa cells; lysis buffer 150 mM NaCl, 50 mM Tris-HCl pH 8.0, 1 mM EDTA, 0.5% Triton-100, with protease inhibitors and PhosSTOP; HA beads or antibody with Protein A Sepharose, 2-4 hr at 4°C; western blot
T1 sequence: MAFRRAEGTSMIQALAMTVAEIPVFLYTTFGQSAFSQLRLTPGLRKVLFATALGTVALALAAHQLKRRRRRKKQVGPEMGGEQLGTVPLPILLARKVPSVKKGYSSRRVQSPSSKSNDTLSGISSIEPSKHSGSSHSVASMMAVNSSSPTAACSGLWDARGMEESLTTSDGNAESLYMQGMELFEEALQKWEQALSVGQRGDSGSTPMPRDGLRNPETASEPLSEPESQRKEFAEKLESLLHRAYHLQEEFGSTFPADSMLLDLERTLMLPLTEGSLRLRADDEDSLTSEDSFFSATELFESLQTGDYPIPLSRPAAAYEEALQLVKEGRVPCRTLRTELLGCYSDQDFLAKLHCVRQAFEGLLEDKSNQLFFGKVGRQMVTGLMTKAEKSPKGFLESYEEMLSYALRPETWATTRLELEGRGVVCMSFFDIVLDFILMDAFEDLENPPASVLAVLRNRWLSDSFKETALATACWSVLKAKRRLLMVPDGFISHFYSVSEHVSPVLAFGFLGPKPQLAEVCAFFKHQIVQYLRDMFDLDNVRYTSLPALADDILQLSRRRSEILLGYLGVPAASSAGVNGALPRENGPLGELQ

HA-tagged MIGA1 (human) = molecular target: T2, HA-tagged MIGA1 (human) (UniProt Q8NAN2); assay: as above
T2 sequence: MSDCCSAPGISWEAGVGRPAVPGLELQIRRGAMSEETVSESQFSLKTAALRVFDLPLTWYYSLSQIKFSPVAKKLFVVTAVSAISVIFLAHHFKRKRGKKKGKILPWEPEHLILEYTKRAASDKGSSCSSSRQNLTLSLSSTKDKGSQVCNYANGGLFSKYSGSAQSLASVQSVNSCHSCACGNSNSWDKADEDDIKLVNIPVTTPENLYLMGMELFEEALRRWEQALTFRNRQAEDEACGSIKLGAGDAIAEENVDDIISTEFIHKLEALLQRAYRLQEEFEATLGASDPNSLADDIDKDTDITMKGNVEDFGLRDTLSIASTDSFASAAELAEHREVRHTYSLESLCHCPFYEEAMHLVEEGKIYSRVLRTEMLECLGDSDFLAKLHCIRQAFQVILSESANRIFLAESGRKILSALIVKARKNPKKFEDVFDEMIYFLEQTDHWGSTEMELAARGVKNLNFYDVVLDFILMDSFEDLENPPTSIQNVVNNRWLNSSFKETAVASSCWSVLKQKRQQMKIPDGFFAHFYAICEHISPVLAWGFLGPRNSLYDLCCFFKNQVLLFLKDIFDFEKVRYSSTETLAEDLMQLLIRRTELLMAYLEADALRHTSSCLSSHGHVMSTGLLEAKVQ

[2] = molecular target: T3, Vap33-Flag (Drosophila Vap33, Flag-tagged, from pUAS Vap33-FLAG) (Drosophila melanogaster) (UniProt Q9W4N8); assay: co-IP; tagged proteins co-expressed in S2 cells; lysis buffer 150 mM NaCl, 50 mM Tris-HCl pH 8.0, 10 mM NaF, 1 mM Na3VO4, 1% NP-40, 10% glycerol, 1.5 mM EDTA, with protease inhibitors and PhosSTOP; HA beads, Flag beads or V5 antibody with Protein A Sepharose, 2-4 hr at 4°C; western blot
T3 sequence: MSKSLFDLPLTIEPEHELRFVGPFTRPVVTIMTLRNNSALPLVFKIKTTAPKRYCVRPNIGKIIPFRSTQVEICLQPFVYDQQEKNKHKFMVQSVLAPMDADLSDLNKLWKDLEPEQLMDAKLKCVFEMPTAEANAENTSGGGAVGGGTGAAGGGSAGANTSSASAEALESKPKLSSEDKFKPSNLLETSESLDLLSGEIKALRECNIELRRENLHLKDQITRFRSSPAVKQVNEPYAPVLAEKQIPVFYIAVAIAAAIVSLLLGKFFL

[3] = molecular target: T4, Miga^FM-V5 (FFAT motif mutant form of Miga) (Drosophila melanogaster) (UniProt Q9W3F7); assay: as above
T4 sequence: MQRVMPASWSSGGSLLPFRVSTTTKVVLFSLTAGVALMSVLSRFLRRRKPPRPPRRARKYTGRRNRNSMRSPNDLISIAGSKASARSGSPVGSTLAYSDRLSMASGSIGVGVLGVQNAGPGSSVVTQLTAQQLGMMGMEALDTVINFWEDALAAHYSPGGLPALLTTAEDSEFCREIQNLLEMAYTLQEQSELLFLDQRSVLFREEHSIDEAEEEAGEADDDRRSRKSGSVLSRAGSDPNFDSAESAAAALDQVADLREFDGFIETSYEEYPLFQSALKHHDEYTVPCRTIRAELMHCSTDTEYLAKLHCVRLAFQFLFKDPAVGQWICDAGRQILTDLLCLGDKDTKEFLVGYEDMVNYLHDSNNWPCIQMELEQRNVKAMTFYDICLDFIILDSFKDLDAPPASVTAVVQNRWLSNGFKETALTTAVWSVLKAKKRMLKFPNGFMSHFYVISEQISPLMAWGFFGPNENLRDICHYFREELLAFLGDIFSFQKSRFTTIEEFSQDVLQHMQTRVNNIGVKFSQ

[4] = molecular target: T5, Miga gRes-HA (genomic rescue fragment of Miga with 3xHA) (Drosophila melanogaster) (UniProt Q9W3F7); assay: as above
T5 sequence: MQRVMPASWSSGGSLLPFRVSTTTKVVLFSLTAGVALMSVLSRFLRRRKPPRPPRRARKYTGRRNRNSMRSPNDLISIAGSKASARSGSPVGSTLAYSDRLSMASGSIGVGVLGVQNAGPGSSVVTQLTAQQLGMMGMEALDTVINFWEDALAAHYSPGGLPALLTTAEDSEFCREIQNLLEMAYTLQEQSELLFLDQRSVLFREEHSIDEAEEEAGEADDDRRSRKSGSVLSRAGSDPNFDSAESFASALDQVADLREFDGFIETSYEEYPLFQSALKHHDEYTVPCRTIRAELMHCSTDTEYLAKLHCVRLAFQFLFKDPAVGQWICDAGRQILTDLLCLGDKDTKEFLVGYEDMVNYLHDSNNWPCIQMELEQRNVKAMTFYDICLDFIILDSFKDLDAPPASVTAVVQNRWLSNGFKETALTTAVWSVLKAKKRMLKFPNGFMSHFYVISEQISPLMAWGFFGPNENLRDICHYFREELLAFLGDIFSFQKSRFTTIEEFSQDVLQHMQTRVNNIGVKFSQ

[5] = molecular target: VAPB-V5 (human VAPB, from pcDNA3.1-VAPB-V5) (human) (UniProt O95292); assay: co-IP; tagged proteins co-expressed in HeLa cells; lysis buffer 150 mM NaCl, 50 mM Tris-HCl pH 8.0, 1 mM EDTA, 0.5% Triton-100, with protease inhibitors and PhosSTOP; HA beads or antibody with Protein A Sepharose, 2-4 hr at 4°C; western blot

Molecule: VAPB-V5 (human VAPB, from pcDNA3.1-VAPB-V5) (from UniProt O95292 1-243)
- binding [1]: binds
- binding (HA-tagged MIGA1 (human)): no binding

B1: Miga gRes-HA (genomic rescue fragment of Miga with 3xHA) (protein, UniProt Q9W3F7 1-525)
chain: MQRVMPASWSSGGSLLPFRVSTTTKVVLFSLTAGVALMSVLSRFLRRRKPPRPPRRARKYTGRRNRNSMRSPNDLISIAGSKASARSGSPVGSTLAYSDRLSMASGSIGVGVLGVQNAGPGSSVVTQLTAQQLGMMGMEALDTVINFWEDALAAHYSPGGLPALLTTAEDSEFCREIQNLLEMAYTLQEQSELLFLDQRSVLFREEHSIDEAEEEAGEADDDRRSRKSGSVLSRAGSDPNFDSAESFASALDQVADLREFDGFIETSYEEYPLFQSALKHHDEYTVPCRTIRAELMHCSTDTEYLAKLHCVRLAFQFLFKDPAVGQWICDAGRQILTDLLCLGDKDTKEFLVGYEDMVNYLHDSNNWPCIQMELEQRNVKAMTFYDICLDFIILDSFKDLDAPPASVTAVVQNRWLSNGFKETALTTAVWSVLKAKKRMLKFPNGFMSHFYVISEQISPLMAWGFFGPNENLRDICHYFREELLAFLGDIFSFQKSRFTTIEEFSQDVLQHMQTRVNNIGVKFSQ
- binding [2]: binds

B2: Vap33-Flag (Drosophila Vap33, Flag-tagged, from pUAS Vap33-FLAG) (protein, UniProt Q9W4N8 1-269)
chain: MSKSLFDLPLTIEPEHELRFVGPFTRPVVTIMTLRNNSALPLVFKIKTTAPKRYCVRPNIGKIIPFRSTQVEICLQPFVYDQQEKNKHKFMVQSVLAPMDADLSDLNKLWKDLEPEQLMDAKLKCVFEMPTAEANAENTSGGGAVGGGTGAAGGGSAGANTSSASAEALESKPKLSSEDKFKPSNLLETSESLDLLSGEIKALRECNIELRRENLHLKDQITRFRSSPAVKQVNEPYAPVLAEKQIPVFYIAVAIAAAIVSLLLGKFFL
- binding [3]: no binding
- binding [4]: binds

B3: Miga^FM-V5 (FFAT motif mutant form of Miga) (protein, UniProt Q9W3F7 1-525)
chain: MQRVMPASWSSGGSLLPFRVSTTTKVVLFSLTAGVALMSVLSRFLRRRKPPRPPRRARKYTGRRNRNSMRSPNDLISIAGSKASARSGSPVGSTLAYSDRLSMASGSIGVGVLGVQNAGPGSSVVTQLTAQQLGMMGMEALDTVINFWEDALAAHYSPGGLPALLTTAEDSEFCREIQNLLEMAYTLQEQSELLFLDQRSVLFREEHSIDEAEEEAGEADDDRRSRKSGSVLSRAGSDPNFDSAESAAAALDQVADLREFDGFIETSYEEYPLFQSALKHHDEYTVPCRTIRAELMHCSTDTEYLAKLHCVRLAFQFLFKDPAVGQWICDAGRQILTDLLCLGDKDTKEFLVGYEDMVNYLHDSNNWPCIQMELEQRNVKAMTFYDICLDFIILDSFKDLDAPPASVTAVVQNRWLSNGFKETALTTAVWSVLKAKKRMLKFPNGFMSHFYVISEQISPLMAWGFFGPNENLRDICHYFREELLAFLGDIFSFQKSRFTTIEEFSQDVLQHMQTRVNNIGVKFSQ
- binding [2]: no binding

B4: Miga^(S246A, S249A)-V5 (protein, UniProt Q9W3F7 1-525)
chain: MQRVMPASWSSGGSLLPFRVSTTTKVVLFSLTAGVALMSVLSRFLRRRKPPRPPRRARKYTGRRNRNSMRSPNDLISIAGSKASARSGSPVGSTLAYSDRLSMASGSIGVGVLGVQNAGPGSSVVTQLTAQQLGMMGMEALDTVINFWEDALAAHYSPGGLPALLTTAEDSEFCREIQNLLEMAYTLQEQSELLFLDQRSVLFREEHSIDEAEEEAGEADDDRRSRKSGSVLSRAGSDPNFDSAEAFAAALDQVADLREFDGFIETSYEEYPLFQSALKHHDEYTVPCRTIRAELMHCSTDTEYLAKLHCVRLAFQFLFKDPAVGQWICDAGRQILTDLLCLGDKDTKEFLVGYEDMVNYLHDSNNWPCIQMELEQRNVKAMTFYDICLDFIILDSFKDLDAPPASVTAVVQNRWLSNGFKETALTTAVWSVLKAKKRMLKFPNGFMSHFYVISEQISPLMAWGFFGPNENLRDICHYFREELLAFLGDIFSFQKSRFTTIEEFSQDVLQHMQTRVNNIGVKFSQ
- binding [2]: no binding

B5: HA-tagged MIGA1 (protein, UniProt Q8NAN2 1-632)
chain: MSDCCSAPGISWEAGVGRPAVPGLELQIRRGAMSEETVSESQFSLKTAALRVFDLPLTWYYSLSQIKFSPVAKKLFVVTAVSAISVIFLAHHFKRKRGKKKGKILPWEPEHLILEYTKRAASDKGSSCSSSRQNLTLSLSSTKDKGSQVCNYANGGLFSKYSGSAQSLASVQSVNSCHSCACGNSNSWDKADEDDIKLVNIPVTTPENLYLMGMELFEEALRRWEQALTFRNRQAEDEACGSIKLGAGDAIAEENVDDIISTEFIHKLEALLQRAYRLQEEFEATLGASDPNSLADDIDKDTDITMKGNVEDFGLRDTLSIASTDSFASAAELAEHREVRHTYSLESLCHCPFYEEAMHLVEEGKIYSRVLRTEMLECLGDSDFLAKLHCIRQAFQVILSESANRIFLAESGRKILSALIVKARKNPKKFEDVFDEMIYFLEQTDHWGSTEMELAARGVKNLNFYDVVLDFILMDSFEDLENPPTSIQNVVNNRWLNSSFKETAVASSCWSVLKQKRQQMKIPDGFFAHFYAICEHISPVLAWGFLGPRNSLYDLCCFFKNQVLLFLKDIFDFEKVRYSSTETLAEDLMQLLIRRTELLMAYLEADALRHTSSCLSSHGHVMSTGLLEAKVQ
- binding [5]: no binding
